Measurements taken from the supplement of paper PMC3334620.
Whole data set: some 33,000 sequences, median “E-score (-0.5 to 0.5)” near -0.054, cut for the highest 2% near 0.39. The list shows a part of the results.

target: Ylr278c (UniProt Q05854); experiment: PBM E-score (8-mer binding enrichment) (E-score (-0.5 to 0.5)); higher = stronger / more preferred TF binding; most listed sequences are background and not binding sites; conditions: protein concentration: 200 nM; construct: GST-DNA-binding domain
Protocol: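 Universal 'all 10-mer' protein binding microarrays (Agilent AMADID 015681) probed with GST-tagged S. cerevisiae TFs (full-length or DBD) made by in vitro transcription/translation (PURExpress), about 100-200 nM. Bound TF was detected with fluorescent anti-GST. Each ungapped 8-mer (which stands for itself and its reverse complement) is scored by the PBM enrichment score (E-score), a modified Wilcoxon-Mann-Whitney statistic from -0.5 to +0.5, computed with the Universal PBM Analysis Suite. Scale: above 0.35 generally sequence-specific binding.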

| Sequence | PBM E-score |
| --- | --- |
| GCCGGGAA | 0.329 |
| AAACGACG | -0.0198 |
| CAGCATCC | 0.11 |
| CCGAGGGC | 0.326 |
| GATCCTGA | 0.0205 |
| CTACTACC | 0.0471 |
| TGCCTTAA | -0.26 |
| ACACGTAA | -0.101 |
| GGTTAAAA | -0.0491 |
| GGGAGACC | -0.0886 |
| GTGATGTA | -0.0394 |
| AACCCGCC | 0.19 |
| CTCACGCC | 0.0239 |
| GTACAGAA | -0.0383 |
| CACACTGA | -0.31 |
| ATATAGGG | -0.0639 |
| GTCGCCCA | -0.197 |
| CTTGTCAC | -0.238 |
| CGTGGGTA | -0.0486 |
| CTGAGTCC | 0.00022 |
| AGATGTGG | -0.171 |
| AGCATGAC | -0.246 |
| AATCGATC | -0.00877 |
| GCAAGTAC | -0.0843 |
| GAAAGGGC | -0.157 |

| Sequence | PBM E-score |
| --- | --- |
| AAGACAAG | 0.0245 |
| TTCTCCAA | -0.115 |
| GCAAGGCC | 0.0928 |
| CGCTAACG | 0.0473 |
| CCTAAACA | -0.149 |
| ATATCCAA | -0.07 |
| CCGAGCGC | 0.323 |
| AATTGTTC | 0.129 |
| TAGTCTAA | -0.197 |
| ATCCTAGA | -0.0621 |
| AGGGTACG | -0.201 |
| ACAGTAGA | -0.133 |
| CAGTAGGG | -0.16 |
| ATAGTCGG | 0.156 |
| GGCGCGGA | 0.352 |
| ACGTCCCC | 0.0469 |
| AGTGTGAC | -0.323 |
| CAGTGCGA | -0.174 |
| CCGAAGCC | 0.311 |
| AGCTGATG | -0.0496 |
| CCGGACTC | 0.43 |
| CAGTACAG | -0.115 |
| AATTAGTC | 0.0276 |
| AATCCCCT | -0.0962 |
| GCCCAACA | -0.279 |

| Sequence | PBM E-score |
| --- | --- |
| CAGGCTTC | 0.0948 |
| ACTGGTCA | -0.184 |
| GATTATAA | 0.0727 |
| AGCGGTAC | -0.0549 |
| AAAGGATA | 0.0449 |
| ATTGAGAG | 0.0544 |
| AAGGGCAT | -0.327 |
| AGTCCGAT | 0.458 |
| AATCACAA | -0.181 |
| GTCTCAAC | -0.136 |
| CGGCTCAC | 0.124 |
| CCGGGGAA | 0.399 |
| CGCGAGCC | 0.236 |
| AATGGAAA | 0.0659 |
| GCAGAGAA | -0.11 |
| GCCGGTCC | 0.343 |
| ACTCCTGC | 0.165 |
| AAGCAGAG | -0.22 |
| ATCTCGGG | 0.278 |
| GCAGACCA | -0.063 |
| ACGCGACA | -0.0728 |
| GCACTTTA | -0.0387 |
| CATCTTAG | -0.151 |
| GTTTACCA | -0.0602 |
| ATCGATAG | -0.235 |

| Sequence | PBM E-score |
| --- | --- |
| ATCACCTC | -0.0689 |
| GTAGGGGA | -0.00705 |
| ATGCCAAT | -0.164 |
| AGCGTCCC | -0.123 |
| GAATAAAC | 0.0403 |
| ACGCGACT | -0.131 |
| GCGTGGTA | 0.0276 |
| ACGAGGAA | -0.0559 |
| CCGTCGCA | 0.249 |
| CAATACGG | 0.19 |
| CATTCGGG | 0.202 |
| AGCAAGTG | -0.312 |
| ACTAGCTC | -0.157 |
| CCGTCTCA | 0.0735 |
| GCGCGTCA | 0.0214 |
| AATTTATA | -0.0303 |
| CATGAAGG | -0.145 |
| ATTGGAGG | -0.102 |
| ATGCGACC | 0.224 |
| CGACTACC | 0.0547 |
| GCATCCAA | -0.142 |
| CTTGTTAC | -0.0957 |
| ATGGTTAA | -0.218 |
| AAGGCCTT | -0.419 |
| CGCAAATA | 0.152 |

| Sequence | PBM E-score |
| --- | --- |
| CCCTCACC | -0.103 |
| GGGCGTCA | 0.0419 |
| GCCGCCAA | 0.0716 |
| GATTTCAC | 0.147 |
| ACGAAATC | 0.0376 |
| GAACATGC | -0.158 |
| CAATCGCC | 0.148 |
| AGCGATCG | 0.0532 |
| ATCAGCAC | -0.169 |
| AATTCAAT | -0.026 |
| AGTCGAAC | -0.0544 |
| ACCCAATA | -0.00615 |
| AGCGCTGC | -0.152 |
| CAACACAA | -0.102 |
| ATAACATG | -0.00356 |
| GCGCGGCC | 0.203 |
| ACGCCCTG | -0.0418 |
| CATGCGCA | -0.083 |
| AATGGGCT | -0.325 |
| TGGGGTAA | 0.138 |
| CCGACGCA | 0.192 |
| AACCGGAA | 0.391 |
| AAGAGGGG | -0.0897 |
| CCGCGTCG | 0.256 |
| GCTTTAAA | -0.0902 |

| Sequence | PBM E-score |
| --- | --- |
| GATAATAC | -0.0531 |
| ATACATAT | 0.0738 |
| AATGTAAG | -0.0195 |
| ACGCAGGA | -0.166 |
| CAGAGTGC | -0.168 |
| AGCCTCTA | -0.318 |
| CCCACCCC | 0.303 |
| ACATCTTG | -0.185 |
| AGATATTC | -0.146 |
| AATAAACG | 0.0237 |
| CATGTGTA | -0.0836 |
| AGGCCAAG | -0.19 |
| AGGAGCAC | -0.0853 |
| AACAGGGA | -0.0959 |
| CGAATGCA | -0.153 |
| GTTTACAA | -0.056 |
| CTCATTAC | -0.108 |
| TCCGCCAA | 0.347 |
| GGCATGCA | -0.144 |
| ACTTGCTG | -0.308 |
| ACGGCCTC | 0.0486 |
| AACCCTAC | -0.291 |
| ATTATACG | 0.101 |
| ATGGACCC | 0.0296 |
| GGCTCGTA | -0.115 |

| Sequence | PBM E-score |
| --- | --- |
| CCAGACAA | -0.0498 |
| TACTACGA | -0.195 |
| TAACCCGA | 0.275 |
| TCCTCTAA | -0.263 |
| TAGGGTGA | -0.152 |
| CTACCCTA | -0.223 |
| CTGAAGAC | 0.0116 |
| CCGAGTAA | 0.15 |
| GGTCACAC | -0.232 |
| ACGACTTA | -0.243 |
| GACTGCAC | -0.141 |
| AAGGGATC | 0.0705 |
| CGGAGATA | 0.483 |
| AGGAGCTA | -0.144 |
| AGTCCAGA | -0.0515 |
| ATCCCGTA | 0.158 |
| CAGCACCG | 0.25 |
| ACAAATAC | 0.0775 |
| ATCGGGAC | 0.115 |
| CGTCTCCA | 0.00299 |
| AACAACCC | 0.0827 |
| CTGTCCTA | -0.231 |
| GATTCGTA | -0.0336 |
| CATCGAAG | -0.0673 |
| AATTCTGG | -0.098 |

| Sequence | PBM E-score |
| --- | --- |
| ATTCGTGC | -0.0347 |
| ACTCTAAG | 0.0543 |
| CGATTGCA | 0.0394 |
| ACTAGTCG | -0.0761 |
| CCCCTTAG | 0.0521 |
| AAAGGCTT | -0.154 |
| AATGTTGA | -0.127 |
| TGATAGAA | -0.124 |
| GATTCTTA | -0.0307 |
| AAGTGCTG | -0.205 |
| ACTCATTC | 0.16 |
| GTATATTA | -0.198 |
| CGCTATCC | 0.0943 |
| AGGTCTAC | -0.229 |
| TCTCCAAA | -0.126 |
| GCACTCGA | 0.0621 |
| CGAATAGA | -0.193 |
| CCTTGGCG | 0.0155 |
| ACTTATTA | -0.231 |
| ACCAGTTC | -0.0541 |
| CATAAGCG | -0.0734 |
| GAGCTTAA | -0.104 |
| CTTCCACC | -0.115 |
| CCGGTACG | 0.162 |
| AGGAGTAA | 0.0423 |

| Sequence | PBM E-score |
| --- | --- |
| ATCAGGGA | -0.162 |
| AAGTTGGC | -0.00422 |
| ATGCTATG | -0.233 |
| GCTGTTCC | 0.0661 |
| ATCTAGTA | -0.27 |
| GTCCGTAA | 0.331 |
| CCGGAGAA | 0.489 |
| CGTGTGAC | -0.00952 |
| GCCATCCA | -0.107 |
| AGAGGGCA | -0.213 |
| GCGCCCAC | 0.0762 |
| ACGAAACT | -0.0402 |
| ATTCGTCC | 0.234 |
| ATATACGA | -0.182 |
| CGCAGCGC | 0.0587 |
| ATAGCGAC | -0.131 |
| ACATGTCT | -0.111 |
| AAAGTGAG | -0.145 |
| AAGCAACG | -0.0532 |
